Measurements: the supplement of paper PMC9446081
The whole screen tested about 39,000 compounds, of which about 220 (0.56%) showed activity. The list shows a part of the results.

Each compound was assayed on Escherichia coli K-12 BW25113 (assay: relative growth (OD600 normalised to plate interquartile mean) (fraction); higher = less growth inhibition, active = 0.2 or less). Conditions: 50 µM; LB; incubation time: overnight (16-24 h).
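Also: static incubation at 37 °C against the wild-type strain, values averaged over two biological replicates.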

| Compound | relative growth |
| --- | --- |
| C[C@@H]1CN([C@@H](C)CO)C(=O)c2cccc(NS(=O)(=O)c3cn(C)cn3)c2O[C@H]1CN(C)Cc1ccc2c(c1)OCO2 | inactive: 0.963 |
| O=C(CCCCCCC(=O)Nc1ccc([C@H]2O[C@@H](CSc3nc(-c4ccccc4)c(-c4ccccc4)o3)C[C@H](c3ccc([N+](=O)[O-])cc3)O2)cc1)NO | inactive: 1.02 |
| Cc1ncc(C[n+]2csc(CCO)c2C)c(N)n1.Cl.[Cl-] | inactive: 1.1 |
| COc1cc(C(=O)N2CCC3(CC2)CC(=O)c2cc(-c4cncc(C(=O)O)c4)ccc2O3)cc2c1c(C)cn2C1CC1 | inactive: 1.01 |
| Cc1noc(C)c1S(=O)(=O)N(C)C[C@@H]1Oc2ccc(NC(=O)NC(C)C)cc2CC(=O)N([C@H](C)CO)C[C@@H]1C | inactive: 1.02 |
| CN1CCC[C@H]1CCO | inactive: 1 |
| CCN(CCCc1ccccc1)CCCc1ccccc1.O=C(O)CC(O)(CC(=O)O)C(=O)O | inactive: 0.881 |
| CC(C)NC(=O)N(C)C[C@H]1Oc2c(NC(=O)Nc3ccc4c(c3)OCO4)cccc2C(=O)N([C@H](C)CO)C[C@@H]1C | inactive: 0.992 |
| C[C@H](CO)N1C[C@H](C)[C@@H](CN(C)CC2CCCCC2)OCCCC[C@H](C)Oc2ccc(NC(=O)Nc3ccc(F)cc3)cc2C1=O | inactive: 1 |
| COc1ccc(S(=O)(=O)N(C)C[C@@H]2Oc3ccc(NC(=O)Cc4ccccc4)cc3C(=O)N([C@@H](C)CO)C[C@@H]2C)cc1 | inactive: 1 |
| COCC(=O)N1C[C@@H](C)[C@@H](OC)CN(C)C(=O)c2ccc(NC(=O)c3cc(C)on3)cc2OC[C@H]1C | inactive: 1.04 |
| CC(C)NC(=O)Nc1ccc2c(c1)C(=O)N([C@H](C)CO)C[C@@H](C)[C@@H](CN(C)S(=O)(=O)c1cn(C)cn1)O2 | inactive: 1 |
| O=C(C[C@@H]1CC[C@@H]2NC[C@@H](O)COC[C@H]2O1)NCCN1CCCCC1 | inactive: 0.988 |
| C[C@H]1CCc2c(sc(/N=C/C=C/c3ccccc3)c2C#N)C1 | inactive: 0.987 |
| N#CCN1CCNCC1 | inactive: 0.995 |
| C[C@@H]1CN([C@@H](C)CO)C(=O)Cc2cc(NS(=O)(=O)c3ccccc3)ccc2O[C@H]1CN(C)Cc1ccncc1 | inactive: 0.992 |
| COc1ccc(S(=O)(=O)N(C)C[C@@H]2OCCCC[C@H](C)Oc3ccc(NC(=O)Nc4c(C)noc4C)cc3C(=O)N([C@@H](C)CO)C[C@H]2C)cc1 | inactive: 1.03 |
| CC(=O)N1[C@H](CO)[C@H](c2ccccc2)C12CN(C(=O)CN1CCOCC1)C2 | inactive: 1 |
| C[C@H](CO)N1C[C@H](C)[C@H](CN(C)S(=O)(=O)c2ccc(F)cc2)Oc2ccc(NC(=O)Nc3ccc(C(F)(F)F)cc3)cc2C1=O | inactive: 0.988 |
| COc1cc(C)c(C(=O)O)c(OC(C)=O)c1 | inactive: 0.993 |
| COCOc1ccc2cc(Br)ccc2c1-c1c(OCOC)ccc2cc(Br)ccc12 | inactive: 1.13 |
| C[C@@H]1CCCCO[C@@H](CN(C)S(=O)(=O)c2cccs2)[C@H](C)CN([C@H](C)CO)C(=O)c2cc(NS(C)(=O)=O)ccc2O1 | inactive: 0.978 |

| Compound | relative growth |
| --- | --- |
| COc1ccc(NC(=O)Nc2ccc3c(c2)C(=O)N([C@H](C)CO)C[C@@H](C)[C@H](CN(C)S(=O)(=O)c2cn(C)cn2)O3)cc1 | inactive: 0.998 |
| C[C@H](CO)N1C[C@H](C)[C@H](CN(C)S(=O)(=O)c2ccc(-c3ccccc3)cc2)OCc2cnnn2CCCC1=O | inactive: 1.02 |
| CN(C)C(=O)N[C@H]1CN(S(C)(=O)=O)[C@H]2CCCO[C@@H]12 | inactive: 0.999 |
| C[C@@H]1CN([C@H](C)CO)C(=O)Cc2cc(N(C)C)ccc2O[C@@H]1CN(C)S(=O)(=O)c1ccc(F)cc1 | inactive: 1 |
| COCC(=O)N1C[C@@H](C(=O)N2CCCO2)C[C@@H]2OCC[C@@H]21 | inactive: 0.997 |
| Nc1nccc2c1ncn2[C@@H]1C=C(CO)[C@@H](O)[C@H]1O | inactive: 0.997 |
| C[C@@H]1CN([C@@H](C)CO)C(=O)Cc2cc(NS(=O)(=O)c3cccs3)ccc2O[C@H]1CN(C)S(=O)(=O)c1ccc(F)cc1 | inactive: 0.959 |
| C[C@@H]1CN([C@@H](C)CO)C(=O)c2cccc(NC(=O)c3ccc(-c4nccs4)cc3)c2O[C@H]1CN(C)Cc1ccc(Oc2ccccc2)cc1 | inactive: 1.03 |
| C[C@H](CO)N1C[C@H](C)[C@H](CN(C)S(=O)(=O)c2cn(C)cn2)Oc2c(NC(=O)NC3CCCCC3)cccc2C1=O | inactive: 1 |
| CN(C)C(=O)COC[C@H]1CN(S(C)(=O)=O)Cc2nnn(C)c21 | inactive: 1 |
| C[C@@H]1CN([C@@H](C)CO)S(=O)(=O)c2ccc(C#CCN(C)C)cc2O[C@@H]1CN(C)Cc1ccccn1 | inactive: 1 |
| COC(=O)C[C@H]1CC[C@@H](N)[C@@H](CO)O1 | inactive: 1.01 |
| CN(Cc1ccc(C(C)(C)C)cc1)Cc1cccc2ccccc12 | inactive: 0.968 |
| C[C@@H]1CN([C@@H](C)CO)C(=O)c2cc(NC(=O)Nc3ccc4c(c3)OCO4)ccc2O[C@@H]1CN(C)Cc1ccc(C(F)(F)F)cc1 | inactive: 1.02 |
| COc1ccc(CN(C)C[C@H]2OCCCC[C@@H](C)Oc3ccc(NC(=O)NC4CCCCC4)cc3C(=O)N([C@@H](C)CO)C[C@@H]2C)cc1 | inactive: 0.991 |
| O=C(CCCCCCC(=O)Nc1ccc([C@@H]2O[C@H](CSc3ccncc3)C[C@H](c3ccccc3)O2)cc1)NO | inactive: 0.972 |
| COC(=O)[C@H]1NCCS1 | inactive: 0.99 |
| CCCN(C)C[C@H]1OCCCC[C@@H](C)Oc2ccc(NC(=O)Nc3ccc(OC)cc3)cc2C(=O)N([C@H](C)CO)C[C@@H]1C | inactive: 1.02 |
| CCS(=O)(=O)N1C[C@]2(CCN(CC2)S(=O)(=O)c2cn(cn2)C)c2c([nH]c3cc(ccc23)OC)[C@@H]1CO | inactive: 0.965 |
| COCC(=O)N(C)C[C@H]1Oc2cc(C#CCN(C)C)ccc2S(=O)(=O)N([C@@H](C)CO)C[C@H]1C | inactive: 1.02 |
| C[C@H](CO)N1C[C@H](C)[C@H](CN(C)Cc2ccc(-c3ccccc3)cc2)Oc2ccc(NS(=O)(=O)c3ccc(Cl)cc3)cc2CC1=O | inactive: 0.989 |
